Here are results for 11 molecules from the supplement of paper PMC4604168 (melanoma cell lines).

The other results are listed elsewhere or left out. Single values are uncertain, as repeats are few or missing.

Test systems include MZ2-MEL; MeWo; RPMI7951; RVH-421; SkMel28; SkMel2; SkMel30; SkMel5; UACC257; UACC62.
Assay in all cases: cell count relative to DMSO control; melanoma cells; higher = more viable cells
What all share (details): library dose: low library concentration; 72 h
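Further: cell number obtained by counting DAPI-stained nuclei in high-throughput microscope images with image analysis software, screen run in 1,536-well plates.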

`Cc1cc(Nc2cc(N3CCN(C)CC3)nc(/C=C/c3ccccc3)n2)n[nH]1` + COc1ccc(-c2ccc3c(N4CCOCC4)nc(N4C[C@@H](C)O[C@@H](C)C4)nc3n2)cc1CO [KU0063794] (first compound 0.04 µM, partner dose 0.02 µM): the cell count came to 92.3% in the experiment on MZ2-MEL; 85.3% in the experiment with MeWo; 83% in the experiment on RPMI7951; 116% in the experiment on RVH-421; 79% in the experiment on SkMel28; 99.7% with SkMel2. For the same molecule, the cell count in the experiment with SkMel30 was 81.9%; with SkMel5, 87.7%; in the experiment with UACC257, 117%; in the experiment on UACC62, 109%.

As to `CC(C)C[C@H](NC(=O)[C@H](Cc1ccccc1)NC(=O)c1cnccn1)B(O)O` [Bortezomib] + O=C(CCCCCCC(=O)Nc1ccccc1)NO [vorinostat] (first compound 0.001 µM, partner dose 0.08 µM), the cell count in the experiment with MZ2-MEL turned out to be 97.8%; in the experiment on MeWo it was 90.5%; in the experiment with RPMI7951 it was 95%; in the experiment on RVH-421 it was 72%; with SkMel28 it was 82.4%; with SkMel2, 95.6%. In addition, the cell count in the experiment with SkMel30 stood at 92.8%; with SkMel5, 98.7%; in the experiment with UACC257, 68.8%; in the experiment on UACC62, 87.6%.

As for `Cc1cn(-c2cc(NC(=O)c3ccc(C)c(Nc4nccc(-c5cccnc5)n4)c3)cc(C(F)(F)F)c2)cn1` [nilotinib] + CCCCCCCCCCCC1=C(O)C(=O)C=C(O)C1=O [Embelin] (first compound 0.2 µM, partner dose 1.2 µM), the cell count worked out at 95.4% in the experiment on MZ2-MEL; 110% in the experiment on MeWo; 103% with RPMI7951; 119% in the experiment on RVH-421; 98.8% in the experiment on SkMel28; 93.1% in the experiment on SkMel2. Besides, the cell count in the experiment on SkMel30 turned out to be 97.6%; with SkMel5, 97.2%; in the experiment on UACC257, 122%; with UACC62 it was 112%.

Turning to `Cc1cc(Nc2cc(N3CCN(C)CC3)nc(/C=C/c3ccccc3)n2)n[nH]1` + COc1cc(N2CCC(N3CCN(C)CC3)CC2)ccc1Nc1ncc(Cl)c(Nc2ccccc2S(=O)(=O)C(C)C)n1 [NVP-TAE684] (first compound 0.04 µM, partner dose 0.08 µM), the cell count was 98.6% in the experiment on MZ2-MEL; 85% in the experiment on MeWo; 93.5% in the experiment with RPMI7951; 92.9% with RVH-421; 89.5% in the experiment with SkMel28; 84.8% with SkMel2. Further, the cell count came to 88.3% in the experiment on SkMel30, 79% with SkMel5, 72.1% in the experiment on UACC257 and 86.6% in the experiment with UACC62.

`Cc1cn(-c2cc(NC(=O)c3ccc(C)c(Nc4nccc(-c5cccnc5)n4)c3)cc(C(F)(F)F)c2)cn1` [nilotinib] + Cc1cc([N+](=O)[O-])ccc1NS(=O)(=O)c1cc(Cl)ccc1Cl [FH535] (first compound 0.2 µM, partner dose 1 µM): the cell count was 95.7% in the experiment with MZ2-MEL; 97.8% with MeWo; 99.6% in the experiment with RPMI7951; 143% with RVH-421; 80.9% in the experiment on SkMel28; 91.4% with SkMel2. For the same molecule, the cell count with SkMel30 worked out at 82.8%; in the experiment with SkMel5, 79.2%; in the experiment with UACC257 it was 88.2%; with UACC62 it was 88.2%.

On to `Cn1c(=O)n(-c2ccc(C(C)(C)C#N)cc2)c2c3cc(-c4cnc5ccccc5c4)ccc3ncc21` + CCCCCCCCCCCC1=C(O)C(=O)C=C(O)C1=O [Embelin] (first compound 0.004 µM, partner dose 1.2 µM), for which the cell count is 108% with MZ2-MEL; 87.6% with MeWo; 99.7% in the experiment with RPMI7951; 109% in the experiment with RVH-421; 93% in the experiment with SkMel28; 87.4% with SkMel2. Also, the cell count with SkMel30 was 71.7%; in the experiment with SkMel5 it was 93.8%; in the experiment with UACC257, 110%; in the experiment with UACC62 it was 100%.

For `Cn1c(=O)n(-c2ccc(C(C)(C)C#N)cc2)c2c3cc(-c4cnc5ccccc5c4)ccc3ncc21` + CC1(C)NC(=O)N(c2ccc([N+](=O)[O-])c(C(F)(F)F)c2)C1=O [nilutamide] (first compound 0.004 µM, partner dose 1 µM), the cell count was determined as 97.5% with MZ2-MEL; 84.7% in the experiment on MeWo; 88.1% in the experiment with RPMI7951; 99.1% in the experiment on RVH-421; 56% with SkMel28; 94.3% with SkMel2. The cell count with SkMel30 worked out at 84.6%; with SkMel5 it was 87.9%; in the experiment on UACC257 it was 92.4%; in the experiment on UACC62, 80.6%.

For `Cc1cc(Nc2cc(N3CCN(C)CC3)nc(/C=C/c3ccccc3)n2)n[nH]1` + Cc1cc(N2CCOCC2)cc2[nH]c(-c3c(NC[C@@H](O)c4cccc(Cl)c4)cc[nH]c3=O)nc12 [BMS536924] (first compound 0.04 µM, partner dose 0.2 µM), the cell count with MZ2-MEL was 99.9%; with MeWo it was 89.7%; in the experiment on RPMI7951, 96%; in the experiment with RVH-421, 89.3%; with SkMel28, 86.9%; in the experiment on SkMel2 it was 101%. Further, the cell count in the experiment on SkMel30 is 91.3%; with SkMel5, 93.3%; with UACC257, 79.8%; in the experiment with UACC62, 95.2%.

Regarding `Cn1c(=O)n(-c2ccc(C(C)(C)C#N)cc2)c2c3cc(-c4cnc5ccccc5c4)ccc3ncc21` + NC(=O)Nc1cc(-c2cccc(F)c2)sc1C(=O)N[C@H]1CCCNC1 [AZD7762] (first compound 0.004 µM, partner dose 0.02 µM), the cell count was 102% in the experiment with MZ2-MEL; 92.6% in the experiment on MeWo; 88.7% with RPMI7951; 86.1% with RVH-421; 89.7% with SkMel28; 93.8% in the experiment on SkMel2. The cell count is 98.2% in the experiment on SkMel30, 118% in the experiment on SkMel5, 121% in the experiment with UACC257 and 95.8% in the experiment with UACC62.

Consider `COc1ccc(C2=N[C@@H](c3ccc(Cl)cc3)[C@@H](c3ccc(Cl)cc3)N2C(=O)N2CCNC(=O)C2)c(OC(C)C)c1` [Nutlin-3] + OCCn1cc(-c2cnc3nnn(Cc4ccc5ncccc5c4)c3n2)cn1 [PF04217903] (first compound 0.1 µM, partner dose 1 µM), for which the cell count was found to be 110% with MZ2-MEL; 94% in the experiment with MeWo; 87.8% in the experiment with RPMI7951; 108% in the experiment with RVH-421; 83.5% in the experiment on SkMel28; 100% in the experiment with SkMel2. The cell count in the experiment with SkMel30 amounted to 95.5%; in the experiment with SkMel5 it was 91.6%; in the experiment with UACC257 it was 87.9%; in the experiment with UACC62 it was 95.5%.

As to `COc1ccc(C2=N[C@@H](c3ccc(Cl)cc3)[C@@H](c3ccc(Cl)cc3)N2C(=O)N2CCNC(=O)C2)c(OC(C)C)c1` [Nutlin-3] + Oc1cc(-c2nc(-c3ccccc3)[nH]c2-c2ccncc2)ccc1Cl [L779450] (first compound 0.1 µM, partner dose 0.2 µM), the cell count was found to be 77.7% with MZ2-MEL; 111% with MeWo; 92.3% in the experiment with RPMI7951; 77% in the experiment on RVH-421; 64.2% with SkMel28; 98.8% in the experiment with SkMel2. Further, the cell count in the experiment with SkMel30 was determined as 79.5%; with SkMel5, 107%; with UACC257 it was 80.8%; with UACC62 it was 60%.
